Reference: article PMC7905944 (Science signaling, 2020)

Target: the molecule itself
Test: SDS-PAGE and western blot

B1: endogenous LGR4 of OV90 cells (receptor)
chain: not shown
stoichiometry N: 2
